Among all 48,000 compounds or so, about 1,200 (2.5%) were called active. Not shown: some 2% with an inconclusive outcome.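 How the source made its calls: active means activation of at least 60% and not above a set upper limit (about 1 call in 100 departs from these limits); inconclusive means activation of 40% to 60%, or above that upper limit; inactive means activation under 40%.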 This is one part of the list.
These compounds were tested against Probable G-protein coupled receptor 32 (Homo sapiens) (UniProt O75388) (assay: qHTS for Agonists of Human Resolvin D1 Receptor DRV1). Settings: CHO-K1 GPR32 beta-arrestin PathHunter luminescence, 90 min; at 76.9 µM; stronger effect = higher value; zero percent set by DMSO-only wells.
Method in brief: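 Luminescent readout of beta-Gal complementation quantifies ligand-induced beta-arrestin association with GPR32 in CHO-K1 cells; 90 min compound incubation at 37 °C, detection 1 h at room temperature.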
Further: 0% is about no effect.

Sequence of UniProt O75388 (O75388 whole entry, looked up): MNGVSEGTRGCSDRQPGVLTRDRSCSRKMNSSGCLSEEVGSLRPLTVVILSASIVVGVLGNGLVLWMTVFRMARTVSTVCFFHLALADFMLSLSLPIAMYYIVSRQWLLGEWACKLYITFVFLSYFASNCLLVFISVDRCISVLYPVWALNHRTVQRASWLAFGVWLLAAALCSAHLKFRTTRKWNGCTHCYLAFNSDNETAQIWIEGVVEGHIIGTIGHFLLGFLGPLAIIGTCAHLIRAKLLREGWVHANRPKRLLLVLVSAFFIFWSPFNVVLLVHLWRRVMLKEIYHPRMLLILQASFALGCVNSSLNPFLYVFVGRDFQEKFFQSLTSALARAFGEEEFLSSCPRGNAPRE

activation, active:
CC1CCc2c(sc(NC(=O)CCCOc3ccccc3)c2C(N)=O)C1 (stereo not drawn) 95.9%

activation, inactive:
Cc1ccc(NC(=O)C2CCCN2S(=O)(=O)c2cccc3cccnc23)c(C)c1 (stereo not drawn) -9.17%
Cc1cccc(C(=O)NCc2nc3ccccc3n2Cc2ccccc2Cl)c1 0.954%
CCOc1ccccc1CNC(=O)c1oc2c(c1C)-c1nn(Cc3cccc(Cl)c3)cc1CC2 -10.9%
Cc1ccc2c(=O)c(C(=O)c3ccc(Cl)cc3)cn(CC(=O)Nc3ccc4c(c3)OCCO4)c2n1 11.4%
CCOc1ccc(Cn2c(CNS(=O)(=O)c3ccc(C(C)(C)C)cc3)nc3cccnc32)cc1 -31.6%
CCOC(=O)c1c(C)n(-c2ccccc2)c2ccc(OC(=O)c3c(F)cccc3F)cc12 -6.98%
COc1cccc(NC(=O)Cn2c(=O)n(Cc3ccc(C(=O)NCc4ccc(C)cc4)cc3)c(=O)c3ccccc32)c1 -13.4%
COc1ccc(Cl)cc1C(=O)NCCS(=O)(=O)N1CCN(c2ccccc2OC)CC1 -16%
COc1ccc(CCNC(=O)C2c3ccccc3C(=O)N2Cc2ccccc2)cc1OC (stereo not drawn) -4.33%
CCOc1ccc(CNC(=O)C2=Cc3cccc(OC)c3OC2)cc1 -7.49%
O=C(NCCc1csc2nc(-c3ccccc3F)nn12)C(=O)Nc1cc(F)ccc1F 29.5%
CCOC(=O)c1c(C)oc2ncnc(Nc3cc(C)cc(C)c3)c12 3.67%
COc1ccc(N(C(=O)c2ccc(C(C)(C)C)cc2)S(=O)(=O)c2ccc(Cl)cc2)cc1 -8.01%
COc1ccc(CNC(=O)c2cnn3c(C)c(Cc4c(F)cccc4Cl)c(C)nc23)cc1 -20.8%
Cc1ccc(N2CC(NC(=O)c3cccc(Cl)c3)CC2=O)cc1C (stereo not drawn) -5.07%
CCN1C(=O)c2ccccc2Sc2ccc(NC(=O)Nc3cccc([N+](=O)[O-])c3C)cc21 -8.33%
CCC1=C(c2ccc(C)cc2)S(=O)(=O)N=C1N1CCC(C(=O)NCc2ccc(N(C)C)cc2)CC1 -17.9%
Cc1cccc(N2CCN(C(=O)c3cnc(N4CCCC4)nc3C)CC2)c1C 36.6%
COc1ccc(C2c3c(n(C)c4ccccc34)C(=O)N2CC(=O)Nc2cccc(Cl)c2C)cc1 (stereo not drawn) -22%
COc1cc(O)cc(O)c1 -6.85%
COC(=O)c1c(NC(=O)/C(C#N)=C/c2ccccc2)sc2c1C(C(=O)OC)CC2 (stereo not drawn) -2.69%
CCCCOc1ccc(C(=O)NCc2nnnn2-c2ccc(C)c(C)c2)cc1 -16.9%
CC1CCCN(C(=O)Cn2ncc3c([nH]c4ccccc43)c2=O)C1 (stereo not drawn) 22.1%
CCc1ccccc1Nc1sc(C(=O)c2cccc(OC)c2)c(N)c1S(=O)(=O)c1ccccc1 -36.4%
CCOC(=O)N1CCc2c(sc3c2c(=O)n(-c2ccc(CC)cc2)c(=O)n3C)C1 -6.72%
CCc1ccccc1NC(=O)Cn1c(=O)ccc2cc(S(=O)(=O)N3CCCC3)ccc21 14.1%
CCCSc1ncc(Cl)c(C(=O)N(Cc2ccc(Cl)cc2)Cc2ccco2)n1 -29%
Cc1ccccc1OCC(=O)N1CCC(c2nc3ccccc3s2)CC1 31.7%
COc1ccc(OCc2ccc(-c3nc(C#N)c(N4CCCCC4)o3)o2)cc1 -19.3%
COc1ccc(-n2c(=O)c3sc4ccccc4c3n(Cc3ccccc3C)c2=O)cc1OC -11.6%
Cc1ccc(NC(=O)Cn2nc(N3CCN(c4ccccc4)CC3)ccc2=O)cc1F -9.65%
COc1ccc(C(=O)c2c(N)c(C(=O)Nc3cccc(OC)c3)c3ccccn23)cc1 37.9%
Cc1c(C(=O)N(C)C)sc2c1c(=O)n(-c1ccc(Cl)cc1)c(=O)n2CC(=O)C(C)(C)C 11.1%
CCC(C(=O)O)n1ccc2cc(S(=O)(=O)N3CCCCC3)ccc21 (stereo not drawn) -8.24%
COc1ccc(S(=O)(=O)N2Cc3ccccc3CC2C(=O)Nc2ccc(C)cc2C)cc1OC (stereo not drawn) 10.6%
CCOC(=O)c1c(C)[nH]c(C)c1S(=O)(=O)N1CCC(C(=O)NCc2cccc(OC)c2)CC1 7.98%
CCC1CCCCN1S(=O)(=O)c1cc2c3c(c1)CC(=O)N3CCC2 (stereo not drawn) -33.4%
COC(=O)c1sc2cccc(F)c2c1S(=O)(=O)N1CCN(c2cccc(C)c2)C(C)C1 (stereo not drawn) -6.8%
COc1ccc(CCNc2ncnc3c2nnn3C)cc1 30.9%
Cc1nc2ccc(S(=O)(=O)N(CC(=O)Nc3ccc(F)cc3)Cc3ccccc3)cc2s1 -9.44%
CCOc1ccc(-n2nc3ccc(NC(=O)Cc4ccccc4)cc3n2)cc1 47.3%
CCCOC(=O)c1c(NC(=O)c2cc3ccccc3c(=O)o2)sc2c1CCC(C)C2 (stereo not drawn) -4.25%
CC(C)(C)OC(=O)N1CCC(c2c(C(=O)N3CCN(C(=O)c4ccco4)CC3)cnn2-c2ccc(F)cc2F)CC1 -3.71%
Cc1cc(-c2ccc(C)c(S(=O)(=O)N3CCOc4ccc(Cl)cc43)c2)on1 -1.75%
CCc1ccccc1-n1c(N)c(C(=O)OC)c2nc3ccccc3nc21 -0.12%
Cc1ccc(-c2nnc3c4ccccc4c(C)nn23)cc1NC(=O)c1ccccc1 8.4%
COC(=O)c1ccc(Cn2nnc3c(=O)[nH]c(C4CCCN(S(=O)(=O)c5ccccc5Cl)C4)nc32)cc1 (stereo not drawn) -9.53%
COc1ccc(-c2cn3c(C)c(C(=O)Nc4cc(C)cc(C)c4)sc3n2)cc1 -28.8%
CCOC(=O)c1cnc2c(Cl)cc(Cl)cc2c1Nc1ccccc1OC 13.8%
COc1cc(NC(=O)c2nnn(CC(=O)Nc3cc(C)ccc3C)c2N)cc(OC)c1 -9.92%
O=C(Nc1ccc(OC(F)(F)F)cc1)c1noc2c1CCCC2 -14.1%
CCOC(=O)CCc1c(C)nc2cc(-c3cc(OC)cc(OC)c3)[nH]n2c1=O 2.49%

Source: PubChem BioAssay AID1346428 (National Center for Advancing Translational Sciences (NCATS), 2018)
